Results are given in words; binding and its absence hold for the method and conditions named. Some entries that bind do so weakly or less than the wild type.

The values below come from article PMC11661359, “Structure guided functional analysis of the S. cerevisiae Mre11 complex” (Research Square, 2024).

Assay [1] deals with S. cerevisiae Rad50-E1235Q (R^EQ of the purified MR^EQ complex) (S. cerevisiae) (UniProt P12753). In words: cryo-EM structure; Apo MR^EQ complex, without dsDNA (see Fig. S2); both purified.
For assay [2] the target is unchanged. In words: cryo-EM structure; purified MR^EQ incubated with a 83-mer dsDNA in the presence of ATP, MgCl2 and MnCl2; 3.2 Å; both purified.

B1: S. cerevisiae Rad50-E1235Q (R^EQ of the purified MR^EQ complex) (enzyme, UniProt P12753 1-1312)
chain: MSAIYKLSIQGIRSFDSNDRETIEFGKPLTLIVGMNGSGKTTIIECLKYATTGDLPPNSKGGVFIHDPKITGEKDIRAQVKLAFTSANGLNMIVTRNIQLLMKKTTTTFKTLEGQLVAINNSGDRSTLSTRSLELDAQVPLYLGVPKAILEYVIFCHQEDSLWPLSEPSNLKKKFDEIFQAMKFTKALDNLKSIKKDMSVDIKLLKQSVEHLKLDKDRSKAMKLNIHQLQTKIDQYNEEVSEIESQLNEITEKSDKLFKSNQDFQKILSKVENLKNTKLSISDQVKRLSNSIDILDLSKPDLQNLLANFSKVLMDKNNQLRDLETDISSLKDRQSSLQSLSNSLIRRQGELEAGKETYEKNRNHLSSLKEAFQHKFQGLSNIENSDMAQVNHEMSQFKAFISQDLTDTIDQFAKDIQLKETNLSDLIKSITVDSQNLEYNKKDRSKLIHDSEELAEKLKSFKSLSTQDSLNHELENLKTYKEKLQSWESENIIPKLNQKIEEKNNEMIILENQIEKFQDRIMKTNQQADLYAKLGLIKKSINTKLDELQKITEKLQNDSRIRQVFPLTQEFQRADLEMDFQKLFINMQKNIAINNKKMHELDRRYTNALYNLNTIEKDLQDNQKSKEKVIQLLSENLPEDCTIDEYNDVLEETELSYKTALENLKMHQTTLEFNRKALEIAERDSCCYLCSRKFENESFKSKLLQELKTKTDANFEKTLKDTVQNEKEYLHSLRLLEKHIITLNSINEKIDNSQKCLEKAKEETKTSKSKLDELEVDSTKLKDEKELAESEIRPLIEKFTYLEKELKDLENSSKTISEELSIYNTSEDGIQTVDELRDQQRKMNDSLRELRKTISDLQMEKDEKVRENSRMINLIKEKELTVSEIESSLTQKQNIDDSIRSKRENINDIDSRVKELEARIISLKNKKDEAQSVLDKVKNERDIQVRNKQKTVADINRLIDRFQTIYNEVVDFEAKGFDELQTTIKELELNKAQMLELKEQLDLKSNEVNEEKRKLADSNNEEKNLKQNLELIELKSQLQHIESEISRLDVQNAEAERDKYQEESLRLRTRFEKLSSENAGKLGEMKQLQNQIDSLTHQLRTDYKDIEKNYHKEWVELQTRSFVTDDIDVYSKALDSAIMKYHGLKMQDINRIIDELWKRTYSGTDIDTIKIRSDEVSSTVKGKSYNYRVVMYKQDVELDMRGRCSAGQKVLASIIIRLALSETFGANCGVIALDQPTTNLDEENIESLAKSLHNIINMRRHQKNFQLIVITHDEKFLGHMNAAAFTDHFFKVKRDDRQKSQIEWVDINRVTY
In the case of B1, the binding entry in assay [1] and in assay [2] was “binds” throughout.
